The record followed here is PubChem BioAssay (NCI).

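Cultured in 96-well plates, cells were exposed to test compound for 48 hours across five concentrations. At the GI50, growth is halved. The concentration for full growth arrest is given as TGI.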

For this test, the system named is NCI-H322M lung. The test can be described thus: NCI-60 cell line screen, 48 h.

For the molecule `N#Cc1c(NC(=O)c2ccc(F)c(Cl)c2)sc2c1CCC(=O)C2`, the GI50 was 3 µM and the TGI was more than 53.4 µM.

Turning to `COc1ccc(C2C(C#N)=C(N)Oc3c2sc2ccc(C)cc32)cc1` (centres undefined), the GI50 was 14.4 µM and the TGI is more than 100 µM.

Consider `CC(C)=CCc1c2c(c(O)c3c1O[C@]14C(=C[C@@H]5C[C@H]1C(C)(C)O[C@@]4(C/C=C(/C)C(=O)O)C5=O)C3=O)CC(O)C(C)(C)O2` (some centres undefined), for which the GI50 was 20.6 µM and the TGI is 49.7 µM.

As to `Oc1cccc2ccc(-c3nnc(SCc4ccc(O)c5ncccc45)o3)nc12`, the GI50 is 1.8 µM and the TGI was more than 100 µM.

For the molecule `[Cl][Ru].c1ccc(-c2cccc(-c3ccccn3)n2)nc1.c1ccc(-c2ccnc3c2ccc2c(-c4ccccc4)ccnc23)cc1`, the GI50 was 4.69 µM and the TGI came out at 20.1 µM.

Turning to `Cc1ccc2c(n1)C(=O)C(Cl)=C(Nc1cccc(C(F)(F)F)c1)C2=O`, the GI50 is 16.1 µM and the TGI amounted to 30.3 µM.

Regarding `CCN(CC)c1ccc(/C=N/NC(=O)c2ccc(NS(C)(=O)=O)cc2)cc1`, the GI50 was 0.352 µM and the TGI is more than 100 µM.
